Test results reported in the supplement of paper PMC4967469.
pIC50: −log10 of the molar value. A lower IC50 marks a more sensitive line; fits outside the tested doses are given as limits. The AUC spans the tested range (256-fold, ending at the top dose) of the same fit; the more sensitive the line, the further below 1. For some assays here: An inferred top dose comes from the curve model; the source does not state it. For some assays here: An entry number marks a drug with two screens in the source, which often give different values.

Key:
Test in all cases: Viability of human cancer cell lines after 72 h of drug (GDSC screen)
[1] = compound: CC(C)CC(=O)Nc1n[nH]c2c1CN(C(=O)C1CCN(C)CC1)C2(C)C [PHA-793887]; conditions: top dose 10.24 µM
Procedure: (§1)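 Human cancer cell lines in 384-well plates, medium with 10% serum, drug for 72 h over a 256-fold dose range (nine 2-fold or five 4-fold steps up to the top dose). Adherent lines were fixed and stained with the nucleic acid dye Syto60, suspension lines read with resazurin; signal relative to control wells, capped at 0 and 100%. One two-parameter sigmoid per drug and line, fitted in a mixed model over all curves with the slope shared within a line.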

[2] = compound: NC(=O)Nc1sc(-c2ccc(F)cc2)cc1C(N)=O [TPCA-1]; conditions: top dose 20 µM
Procedure: as §1

[3] = compound: C[C@@H](N)c1ccc(C(=O)Nc2ccnc3[nH]ccc23)cc1 [Y-39983]; conditions: top dose 20 µM; top dose inferred
Procedure: as §1

[4] = compound: C/C(=C\c1csc(C)n1)[C@@H]1C[C@@H]2O[C@]2(C)CCC[C@H](C)[C@H](O)[C@@H](C)C(=O)C(C)(C)[C@@H](O)CC(=O)O1 [Epothilone B]; conditions: top dose 0.032 µM; top dose inferred
Procedure: as §1

[5] = compound: CCCS(=O)(=O)Nc1ccc(F)c(C(=O)c2c[nH]c3ncc(Cl)cc23)c1F [PLX4720]; conditions: top dose 10 µM
Procedure: as §1

[6] = screen: GDSC drug entry 1371, top dose inferred

Cell Line	AUC [1]	pIC50 [1]	AUC [2]	pIC50 [2]	AUC [3]	pIC50 [3]	AUC [4]	pIC50 [4]	AUC ([5]; screen: GDSC drug entry 1036)	pIC50 ([5]; screen: GDSC drug entry 1036)	AUC [5, 6]	pIC50 [5, 6]
Calu-3 (lung adenocarcinoma, adherent)	0.983	< 4.99	0.982	< 4.70	0.983	< 4.70	0.482	8.75	0.981	< 5.00	0.981	< 5.00
Caov-4 (ovary, adherent)	0.923	< 4.99	0.969	< 4.70	0.98	< 4.70	0.848	< 7.49	0.98	< 5.00	0.977	< 5.00
Capan-2 (pancreas, adherent)	0.938	< 4.99	0.887	< 4.70	0.985	< 4.70	0.794	7.74	0.985	< 5.00	0.977	< 5.00
ChaGo-K-1 (non-small cell lung carcinoma, adherent)	0.899	< 4.99	0.951	< 4.70	0.954	< 4.70	0.697	8.10	0.948	< 5.00	0.983	< 5.00
DAN-G (pancreas, adherent)	0.895	5.01	0.926	< 4.70	0.984	< 4.70	0.992	< 7.49	0.94	< 5.00	–	–
DBTRG-05MG (glioma, adherent)	0.897	< 4.99	0.855	< 4.70	0.951	< 4.70	0.686	8.14	0.795	5.26	0.842	5.05
DK-MG (glioma, adherent)	0.939	< 4.99	0.886	< 4.70	0.942	< 4.70	0.831	< 7.49	0.97	< 5.00	0.968	< 5.00
DMS-53 (small cell lung carcinoma, adherent)	0.988	< 4.99	0.926	< 4.70	0.988	< 4.70	0.978	< 7.49	–	–	0.975	< 5.00
DMS-273 (small cell lung carcinoma, adherent)	0.665	5.72	0.542	5.79	0.932	< 4.70	0.484	8.74	0.972	< 5.00	–	–
DOK (head and neck, adherent)	0.911	< 4.99	0.963	< 4.70	0.973	< 4.70	0.948	< 7.49	0.908	< 5.00	0.973	< 5.00
DU-145 (prostate, adherent)	0.974	< 4.99	0.899	< 4.70	0.968	< 4.70	0.347	9.15	0.938	< 5.00	0.894	< 5.00
Daoy (medulloblastoma, adherent)	0.869	5.10	0.927	< 4.70	0.964	< 4.70	0.179	9.61	–	–	0.947	< 5.00
Detroit562 (head and neck, adherent)	0.969	< 4.99	0.976	< 4.70	0.975	< 4.70	0.484	8.74	0.97	< 5.00	0.983	< 5.00
DoTc2-4510 (cervix, adherent)	0.95	< 4.99	0.944	< 4.70	0.978	< 4.70	0.394	8.98	0.927	< 5.00	0.987	< 5.00
EBC-1 (lung squamous cell carcinoma, adherent)	0.872	< 4.99	0.955	< 4.70	0.972	< 4.70	0.543	8.58	0.908	< 5.00	0.803	5.24
ECC10 (stomach, suspension)	0.765	5.41	0.839	4.84	0.942	< 4.70	0.64	8.30	0.89	< 5.00	0.947	< 5.00
EFM-19 (breast, adherent)	0.962	< 4.99	0.808	4.75	0.915	< 4.70	0.652	8.18	–	–	0.974	< 5.00
EFM-192A (breast, adherent)	0.984	< 4.99	0.939	< 4.70	0.981	< 4.70	0.566	8.51	0.974	< 5.00	0.983	< 5.00
EFO-21 (ovary, adherent)	0.905	< 4.99	0.811	4.77	0.979	< 4.70	0.694	8.05	0.98	< 5.00	0.977	< 5.00
EFO-27 (ovary, adherent)	0.824	5.09	0.83	4.76	0.888	< 4.70	0.479	8.76	0.957	< 5.00	0.944	< 5.00
EGI-1 (biliary tract, adherent)	0.901	< 4.99	0.86	< 4.70	0.978	< 4.70	0.834	7.52	0.876	< 5.00	0.977	< 5.00
EN (endometrium, adherent)	0.821	5.09	0.891	< 4.70	0.91	< 4.70	0.76	7.85	0.961	< 5.00	0.982	< 5.00
EPLC-272H (lung squamous cell carcinoma, adherent)	0.493	6.21	0.776	5.05	0.868	< 4.70	0.439	8.87	–	–	0.975	< 5.00

Cell Line	AUC [1]	pIC50 [1]	AUC [2]	pIC50 [2]	AUC [3]	pIC50 [3]	AUC [4]	pIC50 [4]	AUC ([5]; screen: GDSC drug entry 1036)	pIC50 ([5]; screen: GDSC drug entry 1036)	AUC [5, 6]	pIC50 [5, 6]
ESS-1 (endometrium, adherent)	0.943	< 4.99	0.986	< 4.70	0.981	< 4.70	0.481	8.75	0.99	< 5.00	0.989	< 5.00
EW-7 (Ewing sarcoma, semi-adherent)	0.687	5.70	0.55	5.77	0.708	5.35	0.416	8.92	0.953	< 5.00	0.98	< 5.00
FADU (head and neck, adherent)	0.934	< 4.99	0.923	< 4.70	0.982	< 4.70	0.798	7.84	0.981	< 5.00	0.984	< 5.00
FTC-133 (thyroid, adherent)	0.984	< 4.99	0.986	< 4.70	0.975	< 4.70	0.825	7.66	0.968	< 5.00	0.851	5.05
FU97 (stomach, adherent)	0.899	< 4.99	0.89	< 4.70	0.976	< 4.70	0.956	< 7.49	0.957	< 5.00	0.973	< 5.00
FU-OV-1 (ovary, adherent)	0.854	< 4.99	0.857	< 4.70	0.958	< 4.70	0.888	< 7.49	0.982	< 5.00	0.924	< 5.00
G-292 Clone A141B1 (osteosarcoma, adherent)	0.92	< 4.99	0.921	< 4.70	0.926	< 4.70	0.93	< 7.49	0.956	< 5.00	0.935	< 5.00
G-361 (melanoma, adherent)	0.98	< 4.99	0.832	4.92	0.983	< 4.70	0.42	8.91	0.749	5.50	0.775	5.42
G-401 (kidney, adherent)	0.825	5.16	0.79	5.01	0.929	< 4.70	0.494	8.72	0.984	< 5.00	0.937	< 5.00
G-402 (soft tissue, adherent)	0.79	5.20	0.875	< 4.70	0.931	< 4.70	0.636	8.27	0.921	< 5.00	0.951	< 5.00
G-MEL (melanoma, adherent)	0.892	< 4.99	0.848	4.84	0.976	< 4.70	0.917	< 7.49	–	–	0.406	6.46
GAMG (glioma, adherent)	0.655	5.75	0.844	4.82	0.91	< 4.70	0.471	8.78	0.9	< 5.00	0.98	< 5.00
GCT (soft tissue, adherent)	0.967	< 4.99	0.969	< 4.70	0.981	< 4.70	0.68	8.21	–	–	0.988	< 5.00
GMS-10 (glioma, adherent)	0.944	< 4.99	0.958	< 4.70	0.987	< 4.70	0.932	< 7.49	0.958	< 5.00	–	–
GP5d (large intestine, adherent)	0.895	5.00	0.874	4.80	0.985	< 4.70	0.587	8.47	–	–	0.99	< 5.00
H4 (glioma, adherent)	0.919	< 4.99	0.888	< 4.70	0.985	< 4.70	0.427	8.90	0.838	5.18	0.962	< 5.00
H513 (mesothelioma, semi-adherent)	0.954	< 4.99	0.977	< 4.70	0.986	< 4.70	0.945	< 7.49	0.98	< 5.00	0.984	< 5.00
H2369 (mesothelioma, adherent)	0.94	< 4.99	0.945	< 4.70	0.967	< 4.70	0.495	8.71	0.975	< 5.00	0.934	< 5.00
H2373 (mesothelioma, adherent)	0.816	5.12	0.87	< 4.70	0.933	< 4.70	0.816	7.62	0.975	< 5.00	0.98	< 5.00
H2461 (mesothelioma, adherent)	0.94	< 4.99	0.95	< 4.70	0.973	< 4.70	0.849	< 7.49	0.983	< 5.00	0.899	< 5.00
H2591 (mesothelioma, adherent)	0.952	< 4.99	0.872	< 4.70	0.876	< 4.70	0.869	< 7.49	0.968	< 5.00	0.953	< 5.00
H2595 (mesothelioma, adherent)	0.825	5.01	0.94	< 4.70	0.98	< 4.70	0.66	8.18	0.925	< 5.00	0.966	< 5.00
H2722 (mesothelioma, adherent)	0.977	< 4.99	0.89	< 4.70	0.897	< 4.70	0.739	7.95	–	–	0.918	< 5.00
